Measurements as given in publication PMC10475032.
No constants are given. Whether binding was seen depends on the method and setting. Binding seen in cells or lysates may run through a third protein. Some entries that bind do so weakly or less than the wild type. For part of these data: Tags and fused reporters may be left off the sequences shown.

Amino acid sequences for entries named in this document (tags omitted). A change or cut given only in a name is not applied to a line headed by its entry. Residues count along the entry.
UniProt Q7Z434: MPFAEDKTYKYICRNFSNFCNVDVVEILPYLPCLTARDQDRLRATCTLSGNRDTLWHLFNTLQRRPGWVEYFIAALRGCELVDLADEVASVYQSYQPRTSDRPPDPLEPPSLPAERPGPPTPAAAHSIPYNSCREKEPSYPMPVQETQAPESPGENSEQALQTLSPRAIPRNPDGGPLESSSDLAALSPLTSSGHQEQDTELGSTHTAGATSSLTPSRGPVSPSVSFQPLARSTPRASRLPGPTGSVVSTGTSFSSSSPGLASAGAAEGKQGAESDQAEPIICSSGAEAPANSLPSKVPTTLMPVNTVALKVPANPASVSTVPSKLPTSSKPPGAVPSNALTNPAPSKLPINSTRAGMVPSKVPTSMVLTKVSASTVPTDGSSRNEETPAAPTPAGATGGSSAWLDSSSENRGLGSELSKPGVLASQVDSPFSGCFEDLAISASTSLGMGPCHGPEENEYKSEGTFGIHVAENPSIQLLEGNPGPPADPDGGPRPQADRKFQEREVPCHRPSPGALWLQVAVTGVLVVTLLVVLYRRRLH
UniProt P11413: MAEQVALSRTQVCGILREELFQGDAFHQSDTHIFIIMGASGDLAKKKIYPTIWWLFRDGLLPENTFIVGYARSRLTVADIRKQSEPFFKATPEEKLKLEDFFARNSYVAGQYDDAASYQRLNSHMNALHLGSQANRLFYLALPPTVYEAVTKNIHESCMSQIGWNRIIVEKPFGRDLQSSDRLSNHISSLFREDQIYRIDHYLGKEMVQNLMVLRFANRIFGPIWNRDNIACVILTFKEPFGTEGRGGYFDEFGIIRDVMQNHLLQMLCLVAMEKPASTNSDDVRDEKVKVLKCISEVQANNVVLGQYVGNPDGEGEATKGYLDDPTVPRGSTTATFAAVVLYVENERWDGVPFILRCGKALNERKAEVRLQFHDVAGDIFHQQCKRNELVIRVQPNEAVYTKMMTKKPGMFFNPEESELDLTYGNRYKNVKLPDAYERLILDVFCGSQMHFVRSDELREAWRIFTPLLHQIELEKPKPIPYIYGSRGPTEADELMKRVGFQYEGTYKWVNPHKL
C-terminal domain of G6PD (amino acids 211-515): residues 211-515 of P11413
UniProt Q00612: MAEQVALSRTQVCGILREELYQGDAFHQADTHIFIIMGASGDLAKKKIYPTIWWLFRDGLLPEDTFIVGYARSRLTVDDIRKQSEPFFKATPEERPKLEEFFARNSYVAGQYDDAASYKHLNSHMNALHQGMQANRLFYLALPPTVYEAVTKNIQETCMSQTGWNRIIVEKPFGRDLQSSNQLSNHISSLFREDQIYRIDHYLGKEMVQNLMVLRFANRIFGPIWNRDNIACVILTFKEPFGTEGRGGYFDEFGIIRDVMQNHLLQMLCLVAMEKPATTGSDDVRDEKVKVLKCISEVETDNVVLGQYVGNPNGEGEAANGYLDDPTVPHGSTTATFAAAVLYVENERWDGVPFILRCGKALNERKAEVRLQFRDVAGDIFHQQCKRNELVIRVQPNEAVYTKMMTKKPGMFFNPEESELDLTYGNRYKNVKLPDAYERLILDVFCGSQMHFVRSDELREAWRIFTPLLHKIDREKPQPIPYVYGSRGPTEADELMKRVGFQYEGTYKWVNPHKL
UniProt Q9Y6K9: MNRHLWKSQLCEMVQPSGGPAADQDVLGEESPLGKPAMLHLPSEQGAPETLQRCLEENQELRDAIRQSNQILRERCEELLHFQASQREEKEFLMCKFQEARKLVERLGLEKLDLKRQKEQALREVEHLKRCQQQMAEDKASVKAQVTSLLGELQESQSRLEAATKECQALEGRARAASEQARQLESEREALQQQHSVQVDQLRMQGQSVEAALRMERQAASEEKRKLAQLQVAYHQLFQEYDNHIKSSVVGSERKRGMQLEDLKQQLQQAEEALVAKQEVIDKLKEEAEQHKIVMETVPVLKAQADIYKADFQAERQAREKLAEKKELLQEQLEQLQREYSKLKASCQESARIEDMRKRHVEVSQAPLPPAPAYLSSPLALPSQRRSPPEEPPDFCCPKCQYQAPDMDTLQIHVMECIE

T1: D3 domain of GFPT2 (amino acids 531-682) (UniProt O94808)
T1 sequence: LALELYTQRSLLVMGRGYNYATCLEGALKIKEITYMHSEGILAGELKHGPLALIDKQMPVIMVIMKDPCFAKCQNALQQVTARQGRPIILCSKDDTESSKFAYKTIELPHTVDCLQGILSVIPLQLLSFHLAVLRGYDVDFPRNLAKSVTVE

T2: D1 domain of GFPT2 (amino acids 1-360) (UniProt O94808)
T2 sequence: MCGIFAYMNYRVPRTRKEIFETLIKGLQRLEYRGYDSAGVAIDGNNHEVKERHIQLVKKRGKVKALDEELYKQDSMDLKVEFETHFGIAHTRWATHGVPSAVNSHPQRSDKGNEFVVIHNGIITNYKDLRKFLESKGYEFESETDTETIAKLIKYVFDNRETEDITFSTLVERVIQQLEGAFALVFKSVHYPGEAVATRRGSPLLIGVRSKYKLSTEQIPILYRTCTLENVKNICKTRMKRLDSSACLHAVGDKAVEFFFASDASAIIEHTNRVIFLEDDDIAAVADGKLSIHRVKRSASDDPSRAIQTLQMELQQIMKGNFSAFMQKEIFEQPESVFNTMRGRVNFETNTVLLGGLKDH

B1: TRAF2, endogenous in mouse BMDMs (protein, UniProt P39429 1-501)
chain: MAAASVTSPGSLELLQPGFSKTLLGTRLEAKYLCSACKNILRRPFQAQCGHRYCSFCLTSILSSGPQNCAACVYEGLYEEGISILESSSAFPDNAARREVESLPAVCPNDGCTWKGTLKEYESCHEGLCPFLLTECPACKGLVRLSEKEHHTEQECPKRSLSCQHCRAPCSHVDLEVHYEVCPKFPLTCDGCGKKKIPRETFQDHVRACSKCRVLCRFHTVGCSEMVETENLQDHELQRLREHLALLLSSFLEAQASPGTLNQVGPELLQRCQILEQKIATFENIVCVLNREVERVAVTAEACSRQHRLDQDKIEALSNKVQQLERSIGLKDLAMADLEQKVSELEVSTYDGVFIWKISDFTRKRQEAVAGRTPAIFSPAFYTSRYGYKMCLRVYLNGDGTGRGTHLSLFFVVMKGPNDALLQWPFNQKVTLMLLDHNNREHVIDAFRPDVTSSSFQRPVSDMNIASGCPLFCPVSKMEAKNSYVRDDAIFIKAIVDLTGL
B2: TRAF6, endogenous in mouse BMDMs (protein, UniProt P70196 1-530)
chain: MSLLNCENSCGSSQSSSDCCAAMAASCSAAVKDDSVSGSASTGNLSSSFMEEIQGYDVEFDPPLESKYECPICLMALREAVQTPCGHRFCKACIIKSIRDAGHKCPVDNEILLENQLFPDNFAKREILSLTVKCPNKGCLQKMELRHLEDHQVHCEFALVNCPQCQRPFQKCQVNTHIIEDCPRRQVSCVNCAVSMAYEEKEIHDQSCPLANIICEYCGTILIREQMPNHYDLDCPTAPIPCTFSVFGCHEKMQRNHLARHLQENTQLHMRLLAQAVHNVNLALRPCDAASPSRGCRPEDPNYEETIKQLESRLVRQDHQIRELTAKMETQSMYVGELKRTIRTLEDKVAEMEAQQCNGIYIWKIGNFGMHLKSQEEERPVVIHSPGFYTGRPGYKLCMRLHLQLPTAQRCANYISLFVHTMQGEYDSHLPWPFQGTIRLTILDQSEALIRQNHEEVMDAKPELLAFQRPTIPRNPKGFGYVTFMHLEALRQGTFIKDDTLLVRCEVSTRFDMGGLRKEGFQPRSTDAGV
B3: RIG-I, expressed from plasmid (protein, UniProt O95786 1-925)
chain: MTTEQRRSLQAFQDYIRKTLDPTYILSYMAPWFREEEVQYIQAEKNNKGPMEAATLFLKFLLELQEEGWFRGFLDALDHAGYSGLYEAIESWDFKKIEKLEEYRLLLKRLQPEFKTRIIPTDIISDLSECLINQECEEILQICSTKGMMAGAEKLVECLLRSDKENWPKTLKLALEKERNKFSELWIVEKGIKDVETEDLEDKMETSDIQIFYQEDPECQNLSENSCPPSEVSDTNLYSPFKPRNYQLELALPAMKGKNTIICAPTGCGKTFVSLLICEHHLKKFPQGQKGKVVFFANQIPVYEQQKSVFSKYFERHGYRVTGISGATAENVPVEQIVENNDIIILTPQILVNNLKKGTIPSLSIFTLMIFDECHNTSKQHPYNMIMFNYLDQKLGGSSGPLPQVIGLTASVGVGDAKNTDEALDYICKLCASLDASVIATVKHNLEELEQVVYKPQKFFRKVESRISDKFKYIIAQLMRDTESLAKRICKDLENLSQIQNREFGTQKYEQWIVTVQKACMVFQMPDKDEESRICKALFLYTSHLRKYNDALIISEHARMKDALDYLKDFFSNVRAAGFDEIEQDLTQRFEEKLQELESVSRDPSNENPKLEDLCFILQEEYHLNPETITILFVKTRALVDALKNWIEGNPKLSFLKPGILTGRGKTNQNTGMTLPAQKCILDAFKASGDHNILIATSVADEGIDIAQCNLVILYEYVGNVIKMIQTRGRGRARGSKCFLLTSNAGVIEKEQINMYKEKMMNDSILRLQTWDEAVFREKILHIQTHEKFIRDSQEKPKPVPDKENKKLLCRKCKALACYTADVRVIEECHYTVLGDAFKECFVSRPHPKPKQFSSFEKRAKIFCARQNCSHDWGIHVKYKTFEIPVIKIESFVVEDIATGVQTLYSKWKDFHFEKIPFDPAEMSK
B4: TAK1, expressed from plasmid (enzyme, UniProt O43318 1-606)
chain: MSTASAASSSSSSSAGEMIEAPSQVLNFEEIDYKEIEVEEVVGRGAFGVVCKAKWRAKDVAIKQIESESERKAFIVELRQLSRVNHPNIVKLYGACLNPVCLVMEYAEGGSLYNVLHGAEPLPYYTAAHAMSWCLQCSQGVAYLHSMQPKALIHRDLKPPNLLLVAGGTVLKICDFGTACDIQTHMTNNKGSAAWMAPEVFEGSNYSEKCDVFSWGIILWEVITRRKPFDEIGGPAFRIMWAVHNGTRPPLIKNLPKPIESLMTRCWSKDPSQRPSMEEIVKIMTHLMRYFPGADEPLQYPCQYSDEGQSNSATSTGSFMDIASTNTSNKSDTNMEQVPATNDTIKRLESKLLKNQAKQQSESGRLSLGASRGSSVESLPPTSEGKRMSADMSEIEARIAATTAYSKPKRGHRKTASFGNILDVPEIVISGNGQPRRRSIQDLTVTGTEPGQVSSRSSSPSVRMITTSGPTSEKPTRSHPWTPDDSTDTNGSDNSIPMAYLTLDHQLQPLAPCPNSKESMAVFEQHCKMAQEYMKVQTEIALLLQRKQELVAELDQDEKDQQNTSRLVQEHKKLLDENKSLSTYYQQCKKQLEVIRSQQQKRQGTS
B5: IκB kinase β, expressed from plasmid (enzyme, UniProt O14920 1-756)
chain: MSWSPSLTTQTCGAWEMKERLGTGGFGNVIRWHNQETGEQIAIKQCRQELSPRNRERWCLEIQIMRRLTHPNVVAARDVPEGMQNLAPNDLPLLAMEYCQGGDLRKYLNQFENCCGLREGAILTLLSDIASALRYLHENRIIHRDLKPENIVLQQGEQRLIHKIIDLGYAKELDQGSLCTSFVGTLQYLAPELLEQQKYTVTVDYWSFGTLAFECITGFRPFLPNWQPVQWHSKVRQKSEVDIVVSEDLNGTVKFSSSLPYPNNLNSVLAERLEKWLQLMLMWHPRQRGTDPTYGPNGCFKALDDILNLKLVHILNMVTGTIHTYPVTEDESLQSLKARIQQDTGIPEEDQELLQEAGLALIPDKPATQCISDGKLNEGHTLDMDLVFLFDNSKITYETQISPRPQPESVSCILQEPKRNLAFFQLRKVWGQVWHSIQTLKEDCNRLQQGQRAAMMNLLRNNSCLSKMKNSMASMSQQLKAKLDFFKTSIQIDLEKYSEQTEFGITSDKLLLAWREMEQAVELCGRENEVKLLVERMMALQTDIVDLQRSPMGRKQGGTLDDLEEQARELYRRLREKPRDQRTEGDSQEMVRLLLQAIQSFEKKVRVIYTQLSKTVVCKQKALELLPKVEEVVSLMNEDEKTVVRLQEKRQKELWNLLKIACSKVRGPVSGSPDSMNASRLSQPGQLMSQPSTASNSLPEPAKKSEELVAEAHNLCTLLENAIQDTVREQDQSFTALDWSWLQTEEEEHSCLEQAS
B6: interferon regulatory factor 1 (IRF1), expressed from plasmid (protein, UniProt P10914 1-325)
chain: MPITRMRMRPWLEMQINSNQIPGLIWINKEEMIFQIPWKHAAKHGWDINKDACLFRSWAIHTGRYKAGEKEPDPKTWKANFRCAMNSLPDIEEVKDQSRNKGSSAVRVYRMLPPLTKNQRKERKSKSSRDAKSKAKRKSCGDSSPDTFSDGLSSSTLPDDHSSYTVPGYMQDLEVEQALTPALSPCAVSSTLPDWHIPVEVVPDSTSDLYNFQVSPMPSTSEATTDEDEEGKLPEDIMKLLEQSEWQPTNVDGKGYLLNEPGVQPTSVYGDFSCKEEPEIDSPGGDIGLSLQRVFTDLKNMDATWLDSLLTPVRLPSIQAIPCAP

Experiments:
[1] = molecular target: full-length MAVS (MAVS-WT), expressed in Mavs-/- BMDMs (UniProt Q7Z434); test: co-IP; Mavs-/- BMDMs transfected with control vector or MAVS alleles for 48 h; co-precipitated endogenous proteins detected by immunoblot
[2] = molecular target: G6PD, endogenous in THP-1 cells (human (endogenous in THP-1)) (UniProt P11413); test: co-IP
[3] = molecular target: C-terminal domain of G6PD (amino acids 211-515) (UniProt P11413); test: co-IP; truncation mutants of GFPT2 or G6PD co-expressed with MAVS, TRAF6 or TRAF2; cells not told in the text shown (Supplementary Fig. 11e-g, 13c, d)
[4] = molecular target: T1, D3 domain of GFPT2 (amino acids 531-682); test: as above
[5] = molecular target: T2, D1 domain of GFPT2 (amino acids 1-360); test: as above
[6] = molecular target: glucose-6-phosphate dehydrogenase (G6PD), expressed from plasmid (UniProt P11413); test: co-IP; HEK293 cells transfected with the indicated plasmids for 48 h; lysis in 20 mM Tris-HCl pH 7.5, 150 mM NaCl, 1 mM EDTA, 1% Nonidet P-40; antibody cross-linked to protein G-agarose, overnight at 4 °C; immunoblot
[7] = molecular target: glutamine-fructose-6-phosphate transaminase 2 (GFPT2), expressed from plasmid (UniProt O94808); test: as above

Row | Molecule | binding [1] | binding [7] | further results
1 | G6PD, endogenous in mouse BMDMs (from UniProt Q00612 1-515) (enzyme) | binds | – | –
2 | GFPT2, endogenous in mouse BMDMs (from UniProt Q9Z2Z9 1-682) (enzyme) | binds | – | –
3 | MAVS, endogenous in THP-1 cells (from UniProt Q7Z434 1-540) | – | – | binding [2]: binds
4 | MAVS, expressed from plasmid (from UniProt Q7Z434 1-540) | – | binds | binding [3]: binds; binding [4]: binds; binding [5]: binds; binding [6]: binds
5 | NEMO, expressed from plasmid (from UniProt Q9Y6K9 1-419) | – | no binding | –
6 | B1 | binds | – | –
7 | B2 | binds | – | –
8 | B3 | – | no binding | –
9 | B4 | – | no binding | –
10 | B5 | – | no binding | –
11 | B6 | – | – | binding [6]: no binding
